# Data from PubChem BioAssay AID504832 (National Center for Advancing Translational Sciences (NCATS), 2011).
# Values joined by “and” are separate entries in the source; they are usually repeats but may differ in a detail not shown here. Equal entries are not always repeated. The campaign covered roughly 310,000 compounds. About 18,000 (5.8%) were called active. This list was built around the results that the source calls inconclusive (neither active nor inactive); the mix of calls is not that of the screen. The call rests on the fitted dose curve; in most records, active means well fitted inhibition curve with a large enough effect; inconclusive means small, poorly fitted or top-dose-only effect, or another doubt; inactive means no such curve, though single readings can be large or run the other way. No potency is given beside an inconclusive call; the fits are too rough.
# Test: Primary qHTS for delayed death inhibitors of the malarial parasite plastid, 48 hour incubation
# Conditions: P. falciparum luciferase growth in erythrocytes; series mostly up to 28.7 µM
# Method in brief: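 In quantitative HTS format, infected erythrocytes bearing luciferase-reporter parasites were treated for a single generation at 37 C. Luminescence after adding detection reagent served as the growth measure.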
# Potency means the concentration at half of the fitted maximal effect; tags describe the fitted curve by direction and shape.
row,Structure (SMILES),Potency
1,COc1ccc(C(C(=O)NC2CCCC2)N(Cc2ccccc2)C(=O)CNC(=O)c2ccco2)cc1 (stereo not drawn),"inconclusive [inhibitor, single point]"
2,COc1ccc(NC(=S)Nc2cc(-c3ccccc3)[nH]n2)cc1Cl,"inconclusive [inhibitor, single point]"
3,Cc1ccc(S(=O)(=O)N2CCN(C(=O)CCNC(=O)c3ccccc3Cl)CC2)cc1,"inconclusive [inhibitor, partial curve, poor fit]"
4,Cc1cccc(/N=C/c2c(O)n(Cc3ccc4c(c3)OCO4)c(=O)c3ccccc23)n1,inactive
5,O=C(Nc1cccnc1)c1ccccc1Oc1ccccc1,inactive
6,CC(NC(=O)Cc1cccc2ccccc12)C(=O)N1CCC(=O)CC1 (stereo not drawn),"inconclusive [inhibitor, full curve, poor fit]"
7,Cc1nn2c(NCC(C)C)c3c(nc2c1-c1ccccc1)CCC3,"inconclusive [inhibitor, single point]"
8,Cc1cccc(NC(=O)CN2CCN(CC(=O)Nc3cccc(C)c3)CC2)c1,"inconclusive [inhibitor, partial curve, poor fit]"
9,N#Cc1c(N)sc(=S)c2c1CCCCC2,inactive
10,CCC(c1ccccc1)c1nc(-c2cccnc2)no1 (stereo not drawn),inactive
11,COCCN(C(=O)CCCC(=O)Nc1ccccn1)C(C(=O)NC1CCCC1)c1ccc(C)cc1 (stereo not drawn),"inconclusive [inhibitor, single point]"
12,CC(=O)N1CCc2cc(S(=O)(=O)NCCC(=O)N3CCN(Cc4ccccc4)CC3)ccc21,"inconclusive [inhibitor, partial curve]"
13,COc1ccc(NS(=O)(=O)c2cccc(C(=O)N3CCC3)c2)cc1,inactive
14,O=C(NC1CCCN(Cc2ccccc2F)C1)c1cccc(N2CCCC2=O)c1 (stereo not drawn),"inconclusive [inhibitor, partial curve]"
15,COc1ccccc1C(=O)COC(=O)c1ccc(Cl)nc1,"inconclusive [inhibitor, single point]"
16,O=C(CCNC(=O)c1ccco1)Nc1ccc(SC(F)F)cc1,inactive
17,CCC(C)Sc1cc(-c2nc3ccccn3c2NC2CCCCC2)ccc1OC (stereo not drawn),active: 4.15 µM
18,CN1C(=O)C(CC(=O)Nc2ccc(F)cc2)N(Cc2cccs2)C1=S (stereo not drawn),"inconclusive [inhibitor, single point]"
19,CN1C(=O)N(C)C(=O)C2(Cc3cc(NC(=O)c4ccccc4Cl)ccc3N3CCCC32)C1=O (stereo not drawn),"inconclusive [inhibitor, single point]"
20,CCOc1ccccc1N(CC(=O)N(C)Cc1ccccc1)S(=O)(=O)c1ccccc1,"inconclusive [inhibitor, partial curve]"
21,COc1ccccc1/C=C/C=N/NC(=O)c1ccc2nc[nH]c2c1,"inconclusive [inhibitor, partial curve, poor fit]"
22,C#CCNC(=O)C1=C[C@@H](C2CCCCC2)C[C@@H](OCCCCO)O1,"inconclusive [inhibitor, partial curve, poor fit]"

row,Structure (SMILES),Potency
1,Cc1ccccc1S(=O)(=O)N(CC(O)CN1CCCCC1)c1ccccc1 (stereo not drawn),"inconclusive [inhibitor, single point]"
2,COc1cc(/C=N/NC(=O)c2ccccc2)ccc1OS(=O)(=O)c1ccccc1,active: 10.4 µM
3,O=C(CCc1ccccc1)N=C1SC2CS(=O)(=O)CC2N1c1ccccc1F (stereo not drawn),"inconclusive [inhibitor, partial curve, poor fit]"
4,COc1ccc2[nH]cc(C(=O)CN3CCN(C/C=C/c4ccccc4)CC3)c2c1,active: 11.7 µM
5,CCN(CC)CCNc1ccc(CO)c2sc3ccccc3c(=O)c12,active: 4.78 µM and active: 3.7 µM
6,CCOc1ccc(S(=O)(=O)NCCC(=O)NCC(c2ccc(OC)cc2)N2CCCCC2)cc1 (stereo not drawn),"inconclusive [inhibitor, single point]"
7,CC(C)c1ccc(S(=O)(=O)N2CCN(C(=O)c3ccncc3)CC2)cc1,"inconclusive [inhibitor, single point]"
8,O=C(CSc1ncnc2sccc12)NCc1ccc2c(c1)OCO2,"inconclusive [inhibitor, partial curve, poor fit]"
9,COC(=O)c1ccc(Oc2nc(NC(C)C)nc(SC)n2)cc1,"inconclusive [inhibitor, single point]"
10,CCCCCCN(C(=O)CCCCCN1C(=O)NC(c2ccc(-c3ccccc3)cc2)C(C(=O)OCc2ccccc2)=C1C)C(C(=O)NCCCC)c1ccccn1 (stereo not drawn),active: 2.94 µM
11,CC(/C=N/NC(=O)c1cccc(F)c1)=C\c1ccccc1,"inconclusive [inhibitor, partial curve, poor fit]"
12,NS(=O)(=O)c1ccc(CCNC(=S)Nc2ccccc2)cc1,"inconclusive [inhibitor, partial curve, poor fit]"
13,Cc1c(-c2ccccc2)sc(N)c1C(=O)N1CCOCC1,active: 13.1 µM
14,O=C(CN1C(=O)NC2(CCc3ccccc32)C1=O)c1c[nH]c2ccccc12 (stereo not drawn),active: 8.28 µM
15,O=C(NCCN1CCOCC1)c1ccc2c(c1)N(Cc1ccccc1)C(=O)c1ccccc1S2,"inconclusive [inhibitor, single point]"
16,Nc1cc(C(=O)O)ccc1Sc1ccccc1C(=O)O,inactive
17,CC1CCc2sc(C(=O)NNC(=S)NC3CC3)cc2C1 (stereo not drawn),inactive
18,FC(F)(F)c1cc(-c2cccs2)nc2nc(N3CCOCC3)sc12,"inconclusive [inhibitor, single point]"
19,Cc1ccc(C)c(Cc2c(C)nc3c(C(=O)N4CCOCC4)cnn3c2C)c1,"inconclusive [inhibitor, single point]"
20,COc1ccc(S(=O)(=O)N2CCC(NC(=O)OCc3c(Cl)cccc3Cl)CC2)cc1,"inconclusive [inhibitor, single point]"
21,CC1(C)CC(=O)C2=C(C1)N(CCN1CCOCC1)C1=C(C(=O)CC(C)(C)C1)C2c1cccc(Cl)c1,"inconclusive [inhibitor, full curve, poor fit]"
